The results in this text go back to the RNAGym collection of RNA variant scans (doi:10.7554/elife.90254).

B1: LINE1-mini (parent)
chain: GGCAGAGCUCAACACAGCGUGGCAAAGUGGCUGUGGCUAGACUGCC

Read counts are not given, so values of variants with three or more changes are uncertain.

The data set covers variants of B1. The experiment in a line: self-cleavage, relative activity (ratio to wild type); higher = more cleavage; in vitro, sequencing; the parent is a self-cleaving ribozyme.
Consider A25C G27C C31A U32C G35U, for which the self-cleavage amounted to 0.03.

As to A24C C37A G40U A41U, the self-cleavage stood at 0.

On to A24U A26U G33U, for which the self-cleavage worked out at 0.06.

As for A24G G36U U38A C45U, the self-cleavage was found to be 0.02.

For the variant A25G G35U C45U, the self-cleavage was determined as 0.01.

A25U A39G G44C: the self-cleavage stood at 0.05.

As for A24U G36A A39U, the self-cleavage turned out to be 0.09.

In the case of A24U A25G G40A, the self-cleavage worked out at 0.1.

Regarding A24U A26C A41G, the self-cleavage came to 0.32.

On to C23U U28G A41G, for which the self-cleavage was determined as 0.56.

For A25U U32C C46A, the self-cleavage came to 0.03.

Turning to A25C A26G C31U U34A, the self-cleavage worked out at 0.01.

As for A24C A39U C42G C45A, the self-cleavage stood at 0.03.

As for A24G U28C A41C G44A, the self-cleavage was found to be 0.

Regarding A24U A25U C31G C46G, the self-cleavage is 0.01.

In the case of A24G G27U G29C, the self-cleavage is 0.19.

For A24G A26G G33U, the self-cleavage was 0.02.

As for A25C U38A A39G, the self-cleavage turned out to be 0.04.

As to A24C A26U G27C U43C C45A, the self-cleavage is 0.1.

Take A24G G35U C42U: the self-cleavage is 0.06.

As to A25G G27A C31A G36C C42G, the self-cleavage stood at 0.07.

On to A24C G35C C42G G44A, for which the self-cleavage was determined as 0.

On to A24G G30U G44A, for which the self-cleavage stood at 0.09.

With A25G G27A U43A, the self-cleavage is 0.14.

Regarding A25U G29U U32G C37A, the self-cleavage amounted to 0.05.

As for A24C A25G G29U G30U C31G, the self-cleavage was determined as 0.03.

A25G A26C U38C: the self-cleavage is 0.07.

Turning to A25C C31U C45G, the self-cleavage was found to be 0.03.

As to A24U U32A G40U, the self-cleavage is 0.02.

As for A24G G30C C31U U32G C37U, the self-cleavage was 0.04.

Take A25G G33U U34G G44U: the self-cleavage came to 0.03.

In the case of A25U C31U U34A, the self-cleavage was 0.02.

For the variant A25C U28A A39G A41U, the self-cleavage stood at 0.02.

For the variant C23U U28C G35A C37G U38G, the self-cleavage stood at 0.04.

Consider A24G G27A G40C, for which the self-cleavage was 0.21.

On to A25U G29U U34G, for which the self-cleavage was determined as 0.25.

On to A25C G36A A39G, for which the self-cleavage worked out at 0.16.

A25U A41G C46G: the self-cleavage is 0.16.

Regarding A25G G27C U28C U32C G33U U43A, the self-cleavage amounted to 0.01.

Consider A24C G27C C31A G44U, for which the self-cleavage is 0.01.

Take A25U C37A U43A G44A: the self-cleavage is 0.07.

As for A24G G35U C46A, the self-cleavage was determined as 0.49.

For the variant A25C G40U A41G C42A, the self-cleavage turned out to be 0.06.

Take A25G G36U G40A: the self-cleavage worked out at 0.14.

Consider A24U G27A U28G U38G, for which the self-cleavage was found to be 0.03.

Regarding A24C C37G G40A C42A, the self-cleavage amounted to 0.03.

On to A24G U28A G33C, for which the self-cleavage was determined as 0.15.

A25U C37A A39U: the self-cleavage was determined as 0.11.

For C23U G30C U43A G44U, the self-cleavage amounted to 0.18.

Consider A25U U28G C42A, for which the self-cleavage was 0.01.

A26C C31G G33C: the self-cleavage came out at 0.08.

For the variant A25C A26U U43C, the self-cleavage was 0.08.

Regarding A25G G35C U43A, the self-cleavage was 0.06.

For A24C U34C G36U G44C, the self-cleavage worked out at 0.03.

In the case of A25C G30C G33A, the self-cleavage worked out at 0.06.

A24U U43G C45A C46G: the self-cleavage was found to be 0.05.

Regarding A24G G30A A41G, the self-cleavage was 0.89.

On to A24G G35U A39C U43G, for which the self-cleavage worked out at 0.3.

In the case of A25G G35U C46A, the self-cleavage was found to be 0.08.

Take A24U G29A A39G: the self-cleavage turned out to be 0.19.

For the variant A24G A25C C31A A41G, the self-cleavage amounted to 0.02.

As for A24C G29U U34C C42U, the self-cleavage stood at 0.01.

As for A24U U38G C42A, the self-cleavage was determined as 0.03.

In the case of A26C C31G C45U, the self-cleavage stood at 0.02.

Take A24U A26G U28C C37G C42A: the self-cleavage was found to be 0.05.

For A24C C31U G40A A41G, the self-cleavage stood at 0.02.

A24G G27C U32G: the self-cleavage worked out at 0.12.

A24G G29U C31U C37U G44A: the self-cleavage is 0.01.

For the variant A24G G27U C46U, the self-cleavage is 1.32.

A25G A39C G40A U43A: the self-cleavage was 0.03.

With A24G C37A A41U, the self-cleavage is 0.13.

For A24C G29U U34C G44U, the self-cleavage is 0.14.

Consider C23U G33A U34C G40U C46A, for which the self-cleavage is 0.05.

Take A24G C31G U38C: the self-cleavage was found to be 0.04.

Take A24U G29C U43G C45G: the self-cleavage is 0.14.

For the variant A24U A41C C45U, the self-cleavage turned out to be 0.02.

In the case of A25G U34G A41G G44C, the self-cleavage came out at 0.04.

Regarding A25C U28G G30A, the self-cleavage was determined as 0.41.

Take A24G A25G A39G: the self-cleavage was found to be 0.15.

Turning to A24C G27C C31A G35U, the self-cleavage amounted to 0.03.

Turning to A24C G29U U32A, the self-cleavage worked out at 0.15.

Turning to A24C U34A C42U, the self-cleavage amounted to 0.04.

On to A24C A25U A39U, for which the self-cleavage is 0.46.

As to A24C A26G U28G, the self-cleavage was 0.12.

A25C G29U C42U: the self-cleavage is 0.12.

As to A24C U28A C37G, the self-cleavage stood at 0.03.

For the variant A25U G30C C46A, the self-cleavage was 0.16.

A25C A26G A39C: the self-cleavage worked out at 0.08.

For the variant A24C G29A U32A G40A, the self-cleavage was found to be 0.03.

For the variant A25U U32G G35C, the self-cleavage was determined as 0.26.

For A25C A26C U28C U34A G35A G36U U43A, the self-cleavage is 0.01.

With A24U G35U C42G, the self-cleavage was determined as 0.02.

For A25G C37A A41U, the self-cleavage is 0.16.

Regarding C23U G33A C42A, the self-cleavage was 0.02.

With A25G A26U G33C U34G C45A, the self-cleavage was 0.01.

As for A24U U38A U43A G44U, the self-cleavage came out at 0.02.

In the case of C23U U28G G36C, the self-cleavage stood at 0.02.

For A25U A26G A41C, the self-cleavage turned out to be 0.02.

As for C23U U34A G36A, the self-cleavage turned out to be 0.01.

In the case of A24C U34A C46U, the self-cleavage is 0.07.

Regarding A25U A26C G40A, the self-cleavage is 0.05.

Consider A24C G29A G30U, for which the self-cleavage turned out to be 0.39.

On to A25G U34G G36U, for which the self-cleavage came to 0.18.

Regarding A25C C37G A39G, the self-cleavage worked out at 0.03.

With A25G U28G G29U C37G, the self-cleavage amounted to 0.

For A25C C37G A41G, the self-cleavage was 0.01.

Take A25C G27A A41C G44U: the self-cleavage turned out to be 0.15.

For the variant A24G A25C G27C C42A C45U, the self-cleavage came to 0.1.

Take A24C U28G C37A U43C: the self-cleavage is 0.01.

Regarding A25U C42G C45G, the self-cleavage was found to be 0.03.

As to A24G G29U U38G C42U, the self-cleavage stood at 0.05.

On to A25C U32G G40A, for which the self-cleavage came to 0.13.

Turning to A26C C31G A41U, the self-cleavage is 0.06.

Regarding A24U G27A C31G C45U, the self-cleavage is 0.57.

A25C C31G G36U C42U: the self-cleavage came out at 0.02.

With A24U U32C C46A, the self-cleavage worked out at 0.07.

Consider A25U G33C C45U, for which the self-cleavage stood at 0.03.

For the variant A24C A26C G33U, the self-cleavage turned out to be 0.13.

In the case of A25G G30U C45G, the self-cleavage is 0.09.

Turning to A25U C37G C42A, the self-cleavage was 0.04.

Turning to A24C C31A G35A, the self-cleavage was determined as 0.16.

A24C G36A C45U: the self-cleavage came out at 0.05.

As for C23U U28C A39C, the self-cleavage came out at 0.05.

In the case of C23U G40U C46U, the self-cleavage was 0.16.

As to A24U G29U A39U, the self-cleavage amounted to 0.9.

In the case of A24C C31A G33A C45U, the self-cleavage came to 0.14.

As to A24G U43A C45G, the self-cleavage amounted to 0.05.

On to A25C U38C G44C, for which the self-cleavage is 0.31.

Turning to A25U G29U C37A, the self-cleavage was 0.09.

Take A25C G35U A41C C42A: the self-cleavage came to 0.02.

In the case of A24U C31A U34G C37A G44A, the self-cleavage was found to be 0.02.

Regarding A25G G27U C37A, the self-cleavage worked out at 0.17.

With A25U U28C C31U A41C, the self-cleavage stood at 0.04.

A25G G27A G33A G36A: the self-cleavage amounted to 0.02.

Regarding A24G A26U G29A C37U, the self-cleavage is 0.04.

With A24U A26G U34C C37A, the self-cleavage amounted to 0.01.

Regarding A24U G27U G33A C42A, the self-cleavage was found to be 0.08.

In the case of A25G G29U C37A, the self-cleavage was found to be 0.07.

With A25G G29U C37G, the self-cleavage is 0.03.

With A25C G27A G29C C31G, the self-cleavage is 2.78.

Regarding C23U G36U A39G, the self-cleavage was determined as 0.01.

Turning to A24U C31U C46A, the self-cleavage is 0.24.

Consider A24C C42G G44C, for which the self-cleavage came out at 0.1.

In the case of A25U A39G C46A, the self-cleavage turned out to be 0.06.

As for A24U A41U C45A, the self-cleavage amounted to 0.62.

As for A24C G30A G35C G40C C46A, the self-cleavage amounted to 0.01.

Turning to A25U C31G C37U U38A A41G, the self-cleavage is 0.05.

As to A25C G29U U43A, the self-cleavage was 0.02.

Consider A25G G29A G30A G36A, for which the self-cleavage was 0.18.

A24C G30U C45G: the self-cleavage worked out at 0.05.

In the case of A24U G30U C37G G40C, the self-cleavage amounted to 0.02.

As for A24U G30U G40A C42G, the self-cleavage came to 0.03.

A25G G30A U38G G40U C45U: the self-cleavage worked out at 0.02.

A25G U34G C46U: the self-cleavage was 0.01.

Consider A25U G30C A41G G44C, for which the self-cleavage was 0.

For A25C A26G C37A, the self-cleavage is 0.04.

For the variant A24U G40A C42G, the self-cleavage was 0.12.

With A24C G35A G36A C42A, the self-cleavage was 0.01.

Take A24U U28G G29U C31G U32C G33U G35C C37U: the self-cleavage turned out to be 0.1.

For the variant A24C C31A A39U C42G, the self-cleavage stood at 0.04.

As for A25C G40A C46U, the self-cleavage turned out to be 0.14.

Consider A25G G36A C37A, for which the self-cleavage came to 0.06.

In the case of A24C U38A A41C C46A, the self-cleavage came out at 0.02.

Turning to A24U C42A U43A, the self-cleavage amounted to 0.09.

As for A25U G27U C42U, the self-cleavage came out at 0.19.

Take A24G U38A G40U A41U C46A: the self-cleavage was found to be 0.06.

Regarding A24U G27U C31U U34A U43C, the self-cleavage is 0.02.
